# Measurements from a collection of fitness landscapes (doi:10.1016/j.celrep.2020.107928).
# The full ranking holds about 81,000 sequences; the median of “one-hybrid fitness for binding parS DNA” is about -0.17, and the highest 2% start at about 0.51. This is one part of the list.
# B1: Caulobacter ParB omega fusion; a variant is named by its letters at X, in order, B8GW30 (parent)
# chain: MESVVVGEPGMSEGRRGLGRGLSALLGEVDAAPAQAPGEQLGGSREAPIEILQRNPDQPRRTFREEDLEDLSNSIREKGVLQPILVRPSPDTAGEYQIVAGERAWRAAQRAGLKTVPIMVRELDDLAVLEIGIIENVQRADLNVLEEALSYKVLMEKFERTQENIAQTIGKSXSHVANXMRLLXLPDEVQSYLVSGELTAXHARAIAAAADPVALAKQIIEGGLSVRETEALARKAPNLSAGKSKGGRPPRVKDTDTQALESDLSSVLGLDVSIDHRGSTGTLTITYATLEQLDDLCNRLTRGI
# Variants of: B1
# Assay: one-hybrid fitness for binding parS DNA (scaled: cognate 1, non-cognate 0); higher = stronger binding
# Settings: with parS DNA site
# Summary of the method: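 Selection: bacterial one-hybrid in E. coli USO, HIS3 reporter with the site 19 bp from the promoter, 48 hours at 37°C on M9-minus-histidine plus 0.1 mM IPTG and 5 mM 3-AT. Libraries were Caulobacter ParB with four randomised specificity codons, sequenced on Illumina before and after selection. Fitness is the rescaled log change in variant-to-wild-type read ratio, anchored to the cognate and non-cognate sites.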
row,Variant,one-hybrid fitness for binding parS DNA
1,MYTN,≤ 0.2
2,QSPS,≤ 0.2
3,HVRA,≤ 0.2
4,KKAE,≤ 0.2
5,IAYR,≤ 0.2
6,RSFA,0.558
7,TMKF,≤ 0.2
8,MYHE,≤ 0.2
9,HVMV,≤ 0.2
10,GLSN,≤ 0.2
11,WRPV,≤ 0.2
12,HRDR,≤ 0.2
13,QMLP,≤ 0.2
14,SSNH,≤ 0.2
15,DVMY,≤ 0.2
16,GCAG,≤ 0.2
17,VKDF,≤ 0.2
18,RSHA,0.592
19,LHRH,≤ 0.2
20,QRWA,≤ 0.2
21,RRQY,0.441
22,PSYI,≤ 0.2
23,DTTT,≤ 0.2
24,TFVS,≤ 0.2

row,Variant,one-hybrid fitness for binding parS DNA
1,NVSK,≤ 0.2
2,LWVC,≤ 0.2
3,MEWG,≤ 0.2
4,VPQA,≤ 0.2
5,LFSR,≤ 0.2
6,QTTW,≤ 0.2
7,APYT,≤ 0.2
8,VPLM,≤ 0.2
9,TCTR,≤ 0.2
10,CYMY,≤ 0.2
11,LINV,≤ 0.2
12,QVCC,≤ 0.2
13,CCAL,≤ 0.2
14,VHKG,≤ 0.2
15,RNVK,≤ 0.2
16,PDEY,≤ 0.2
17,ARRT,≤ 0.2
18,QYKH,≤ 0.2
19,ARHD,≤ 0.2
20,IARF,≤ 0.2
21,ERRG,≤ 0.2
22,FIVI,≤ 0.2
23,PGCS,≤ 0.2
24,AVMC,≤ 0.2

row,Variant,one-hybrid fitness for binding parS DNA
1,APPN,≤ 0.2
2,QFNN,≤ 0.2
3,VSLP,≤ 0.2
4,PTYT,≤ 0.2
5,RFYN,0.357
6,WFNG,≤ 0.2
7,WRYW,≤ 0.2
8,WKDS,≤ 0.2
9,QNGE,≤ 0.2
10,MHTF,≤ 0.2
11,KVDP,≤ 0.2
12,WCDC,≤ 0.2
13,ESGC,≤ 0.2
14,SVKC,≤ 0.2
15,EYAY,≤ 0.2
16,SMLH,≤ 0.2
17,RDAS,≤ 0.2
18,CMPC,≤ 0.2
19,HDQR,≤ 0.2
20,WSYE,≤ 0.2
21,DHHT,≤ 0.2
22,RLGF,0.278
23,IIGA,≤ 0.2
24,YRIC,≤ 0.2

row,Variant,one-hybrid fitness for binding parS DNA
1,NGAK,≤ 0.2
2,HKPG,≤ 0.2
3,VDIR,≤ 0.2
4,LKRF,≤ 0.2
5,DIKV,≤ 0.2
6,FGRT,≤ 0.2
7,PGGW,≤ 0.2
8,FHVS,≤ 0.2
9,LIMC,≤ 0.2
10,AECC,≤ 0.2
11,YTTI,≤ 0.2
12,VNAW,≤ 0.2
13,EHMS,≤ 0.2
14,ESAG,≤ 0.2
15,GHTW,≤ 0.2
16,VQMS,≤ 0.2
17,QSFN,≤ 0.2
18,DHKG,≤ 0.2
19,FSDS,≤ 0.2
20,EFIS,≤ 0.2
21,IRSM,≤ 0.2
22,HIFS,≤ 0.2
23,HMQC,≤ 0.2
24,HYSV,≤ 0.2

row,Variant,one-hybrid fitness for binding parS DNA
1,LCDR,≤ 0.2
2,DTWL,≤ 0.2
3,CVSD,≤ 0.2
4,VTTW,≤ 0.2
5,QFQY,≤ 0.2
6,QYNR,≤ 0.2
7,WFAC,≤ 0.2
8,SRST,≤ 0.2
9,LEYR,≤ 0.2
10,HRMA,≤ 0.2
11,LMTD,≤ 0.2
12,MDQW,≤ 0.2
13,GYQL,≤ 0.2
14,NYDS,≤ 0.2
15,FVCG,≤ 0.2
16,RNDA,0.354
17,QPML,≤ 0.2
18,SPRF,≤ 0.2
19,PANK,≤ 0.2
20,AMPY,≤ 0.2
21,HTTA,≤ 0.2
22,NVPS,≤ 0.2
23,LRSA,≤ 0.2
24,KMMT,≤ 0.2

row,Variant,one-hybrid fitness for binding parS DNA
1,HQKS,≤ 0.2
2,IHHR,≤ 0.2
3,ICTG,≤ 0.2
4,TPIT,≤ 0.2
5,VRRR,≤ 0.2
6,WWMS,≤ 0.2
7,LAMN,≤ 0.2
8,QLAT,≤ 0.2
9,CSEP,≤ 0.2
10,QVPY,≤ 0.2
11,HHFR,≤ 0.2
12,QAAM,≤ 0.2
13,GLLT,≤ 0.2
14,QEYC,≤ 0.2
15,QRQR,≤ 0.2
16,FLPT,≤ 0.2
17,HSSG,≤ 0.2
18,NERG,≤ 0.2
19,AGAA,≤ 0.2
20,PYHN,≤ 0.2
21,ATVA,≤ 0.2
22,SGKT,≤ 0.2
23,SHTS,≤ 0.2
24,RRLC,0.669

row,Variant,one-hybrid fitness for binding parS DNA
1,RPQP,≤ 0.2
2,HKPW,≤ 0.2
3,TIRS,≤ 0.2
4,SACI,≤ 0.2
5,MTAL,≤ 0.2
6,PRIR,≤ 0.2
7,RDSC,≤ 0.2
8,THQV,≤ 0.2
9,ANSN,≤ 0.2
10,SHIE,≤ 0.2
11,TKMS,≤ 0.2
12,HPGY,≤ 0.2
13,CGFS,≤ 0.2
14,YCAT,≤ 0.2
15,AESL,≤ 0.2
16,HTPI,≤ 0.2
17,HAQD,≤ 0.2
18,VRNW,≤ 0.2
19,QSVA,≤ 0.2
20,NQPK,≤ 0.2
21,LTII,≤ 0.2
22,HNPD,≤ 0.2
23,GGSI,≤ 0.2
24,INRG,≤ 0.2

row,Variant,one-hybrid fitness for binding parS DNA
1,PGRV,≤ 0.2
2,WLVP,≤ 0.2
3,QHCT,≤ 0.2
4,NYSL,≤ 0.2
5,TKSD,≤ 0.2
6,LVPH,≤ 0.2
7,HALD,≤ 0.2
8,CLNG,≤ 0.2
9,TDPD,≤ 0.2
10,FLII,≤ 0.2
11,GILL,≤ 0.2
12,YTRR,≤ 0.2
13,HTLR,≤ 0.2
14,QYVA,≤ 0.2
15,STNL,≤ 0.2
16,SCSG,≤ 0.2
17,QGTK,≤ 0.2
18,NLTV,≤ 0.2
19,KLYR,≤ 0.2
20,RWHP,≤ 0.2
21,HAAE,≤ 0.2
22,MEGR,≤ 0.2
23,LMFG,≤ 0.2
24,KVKL,≤ 0.2

row,Variant,one-hybrid fitness for binding parS DNA
1,IITR,≤ 0.2
2,RRLF,≤ 0.2
3,KGSG,≤ 0.2
4,PNHY,≤ 0.2
5,HSCY,≤ 0.2
6,RQLY,0.442
7,GLGS,≤ 0.2
8,CSDT,≤ 0.2
9,PQSF,≤ 0.2
10,KWAL,≤ 0.2
11,QRCQ,≤ 0.2
12,RRKN,0.84
13,HLGA,≤ 0.2
14,PADC,≤ 0.2
15,TPQA,≤ 0.2
16,AGDV,≤ 0.2
17,PDCS,≤ 0.2
18,GGWG,≤ 0.2
19,RHVM,≤ 0.2
20,EHNI,≤ 0.2
21,DDVN,≤ 0.2
22,LSLP,≤ 0.2
23,TWVG,≤ 0.2
24,SPCG,≤ 0.2

row,Variant,one-hybrid fitness for binding parS DNA
1,IFPS,≤ 0.2
2,NTVC,≤ 0.2
3,HHHT,≤ 0.2
4,YTNV,≤ 0.2
5,GARN,≤ 0.2
6,DTSL,≤ 0.2
7,TLWR,≤ 0.2
8,QGSY,≤ 0.2
9,PHYE,≤ 0.2
10,YYHS,≤ 0.2
11,AFRC,≤ 0.2
12,PHQA,≤ 0.2
13,DACM,≤ 0.2
14,HDKY,≤ 0.2
15,MQRN,≤ 0.2
16,ITAG,≤ 0.2
17,PNHN,≤ 0.2
18,QQAW,≤ 0.2
19,CFAY,≤ 0.2
20,ESQS,≤ 0.2
21,KVGS,≤ 0.2
22,NMKS,≤ 0.2
23,RFEY,0.349
24,CCLD,≤ 0.2

row,Variant,one-hybrid fitness for binding parS DNA
1,LAMT,≤ 0.2
2,YMKR,≤ 0.2
3,EAKS,≤ 0.2
4,ISIM,≤ 0.2
5,KEQG,≤ 0.2
6,KHAD,≤ 0.2
7,RNYD,≤ 0.2
8,STDV,≤ 0.2
9,QHTL,≤ 0.2
10,SARR,≤ 0.2
11,QTWE,≤ 0.2
12,QGRM,≤ 0.2
13,RIMN,0.39
14,ADMG,≤ 0.2
15,RHTH,≤ 0.2
16,GRWR,≤ 0.2
17,NTND,≤ 0.2
18,FRWG,≤ 0.2
19,SLPT,≤ 0.2
20,TPVG,≤ 0.2
21,LAFC,≤ 0.2
22,AIDR,≤ 0.2
23,ALHG,≤ 0.2
24,ISAS,≤ 0.2

row,Variant,one-hybrid fitness for binding parS DNA
1,PDYC,≤ 0.2
2,AVSR,≤ 0.2
3,WQAV,≤ 0.2
4,YTDT,≤ 0.2
5,NCPM,≤ 0.2
6,EHTN,≤ 0.2
7,RKMV,≤ 0.2
8,TLVY,≤ 0.2
9,TRTH,≤ 0.2
10,SPLM,≤ 0.2
11,EMRY,≤ 0.2
12,WQWG,≤ 0.2
13,MSFM,≤ 0.2
14,HRIF,≤ 0.2
15,TEQR,≤ 0.2
16,RGEN,≤ 0.2
17,NCHA,≤ 0.2
18,VNGR,≤ 0.2
19,IGNR,≤ 0.2
20,GLKH,≤ 0.2
21,QTRE,≤ 0.2
22,LAAY,≤ 0.2
23,KVPC,≤ 0.2
24,PPKF,≤ 0.2

row,Variant,one-hybrid fitness for binding parS DNA
1,PVGN,≤ 0.2
2,RIDM,0.256
3,DVTQ,≤ 0.2
4,DNGS,≤ 0.2
5,VVMM,≤ 0.2
6,QVWE,≤ 0.2
7,RTTQ,≤ 0.2
8,PNHA,≤ 0.2
9,TAAV,≤ 0.2
10,KPYC,≤ 0.2
11,EYRS,≤ 0.2
12,QQGP,≤ 0.2
13,WLYI,≤ 0.2
14,VNQC,≤ 0.2
15,MLSV,≤ 0.2
16,LYTH,≤ 0.2
17,WPEN,≤ 0.2
18,EAWS,≤ 0.2
